Experimental data as given in PMC4336329 (PLoS ONE, 2015).
Hit rate of the full screen: of about 310,000 compounds, about 2,200 (0.71%) showed an effect of 50% or more. Effects have a minus sign here. This is one part of the list.

What follows are compounds tested against human ether-à-go-go-related gene (hERG) potassium channel (human, UniProt Q12809) (assay: primary screen, population patch clamp on CHO cells stably expressing hERG).
Sequence of human ether-à-go-go-related gene (hERG) potassium channel (Q12809 whole entry, looked up): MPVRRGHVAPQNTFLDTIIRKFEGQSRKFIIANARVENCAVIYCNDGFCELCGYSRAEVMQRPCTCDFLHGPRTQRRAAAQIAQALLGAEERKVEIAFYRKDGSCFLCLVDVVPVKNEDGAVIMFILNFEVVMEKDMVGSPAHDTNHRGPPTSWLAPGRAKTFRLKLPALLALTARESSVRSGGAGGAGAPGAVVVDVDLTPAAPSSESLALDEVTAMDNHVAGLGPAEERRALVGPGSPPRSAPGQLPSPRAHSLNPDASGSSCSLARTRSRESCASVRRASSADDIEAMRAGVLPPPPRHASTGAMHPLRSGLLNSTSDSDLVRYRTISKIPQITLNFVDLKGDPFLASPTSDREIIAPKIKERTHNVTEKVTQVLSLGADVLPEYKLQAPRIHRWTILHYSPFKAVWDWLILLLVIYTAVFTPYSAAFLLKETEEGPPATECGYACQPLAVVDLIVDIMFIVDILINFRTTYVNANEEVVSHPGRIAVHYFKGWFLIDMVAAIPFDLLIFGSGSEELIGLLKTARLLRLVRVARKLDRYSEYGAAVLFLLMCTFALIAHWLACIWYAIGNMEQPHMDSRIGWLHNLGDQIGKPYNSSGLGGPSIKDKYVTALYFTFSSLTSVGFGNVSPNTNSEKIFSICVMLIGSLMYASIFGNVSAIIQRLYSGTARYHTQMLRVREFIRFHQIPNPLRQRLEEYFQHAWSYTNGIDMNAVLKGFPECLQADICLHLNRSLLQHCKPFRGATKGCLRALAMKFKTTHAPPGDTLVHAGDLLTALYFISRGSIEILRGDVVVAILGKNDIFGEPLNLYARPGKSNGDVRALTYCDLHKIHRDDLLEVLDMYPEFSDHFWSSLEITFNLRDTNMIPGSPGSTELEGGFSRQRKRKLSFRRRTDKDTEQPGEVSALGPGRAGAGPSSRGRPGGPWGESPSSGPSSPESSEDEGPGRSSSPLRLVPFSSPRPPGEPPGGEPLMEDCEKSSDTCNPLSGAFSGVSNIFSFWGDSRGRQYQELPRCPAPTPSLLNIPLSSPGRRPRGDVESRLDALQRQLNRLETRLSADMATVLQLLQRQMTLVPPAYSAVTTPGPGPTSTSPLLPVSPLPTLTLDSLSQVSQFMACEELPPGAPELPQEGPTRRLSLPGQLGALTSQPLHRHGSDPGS

Compound | hERG current change (%, negative = inhibition) at 1uM
Cc1ccccc1-c1nn(-c2ccc(F)cc2F)cc1CNC1CC1 | 21.5%
COCCN=c1scc(-c2ccccc2)n1/N=C/c1c[nH]c2ccccc12 | 18.1%
O=C(NC1CCCC1)C(c1ccncc1)N(C(=O)c1csnn1)c1ccc(F)cc1 (stereo not drawn) | 12.8%
CCOC(=O)c1cnc2c(ccc3ccccc32)c1NCCCN(C)C | -6.29%
O=C(c1ccc(Oc2ccc(C(F)(F)F)cc2[N+](=O)[O-])cc1)N1CCOCC1 | -7.54%
COc1ccc(N(CC(=O)NC2CCCC2)C(=O)c2ccc(C)s2)c(OC)c1 | 4.67%
Oc1ccc(-c2nc(=S)[nH][nH]2)cc1 | 12%
Cc1c(/C=N/n2cnnc2)c2ccccc2n1CCOc1ccccc1 | 1.96%
COC(=O)/C=C/c1ccc(OC(=O)c2ccncc2)cc1 | 13.8%
COc1cccc(OCC(=O)Nc2cc(Cl)ccc2Oc2ccccc2)c1 | 7.16%
O=C1NC(=O)C(Cc2cccc(Oc3ccccc3)c2)S1 (stereo not drawn) | 16.6%
Nc1nc(C(=O)N2CCOCC2)nn1S(=O)(=O)c1ccc(Cl)cc1 | 2.74%
O=c1[nH]n(Cc2ccccc2)c2ccccc12 | 9.22%
O=C(CSc1nnc(-c2ccncc2)o1)NC1C2CC3CC(C2)CC1C3 (stereo not drawn) | -0.0324%
Cc1nnsc1C(=O)Nc1ccc(S(=O)(=O)N2CCCCC2C)cc1 (stereo not drawn) | 12.5%
O=C(NCC(=O)N1CCc2ccccc2C1)c1ccc(Cl)cc1Cl | 3.55%
O=C(Nc1ccc(Cl)cc1)C(c1ccccc1)N1CCOCC1 (stereo not drawn) | 8.12%
O=C(CN1CCN(c2ccccc2F)CC1)NC(=O)NCc1ccco1 | 14.4%
COC(=O)c1nnn(CC(=O)NC(=O)Nc2ccc(F)cc2)c1C(=O)OC | 11.1%
COc1ccccc1C(CNc1nc(C(F)(F)F)nc2ccccc12)N(C)C (stereo not drawn) | 8.51%
Cc1c(C(=O)N2CCN(Cc3ccc4c(c3)OCO4)CC2)sc2ncnc(N3CCN(c4ccccc4F)CC3)c12 | 12.1%
CCOC(=O)NC(=O)C(=CNc1ccccc1OC)C(=O)NC(=O)OCC | 9.62%

Compound | hERG current change (%, negative = inhibition) at 1uM
CC1=NN(c2nc(-c3ccc(C)cc3)cs2)C(=O)C1N=Nc1ccc(C(N)=O)cc1 (stereo not drawn) | 18.6%
COc1ccc(NS(=O)(=O)c2cc(Cl)ccc2Cl)cc1S(=O)(=O)N1CCCCC1 | 5.46%
CCC(c1nnc(SCC(=O)Nc2nnc(-c3ccccc3)o2)o1)N(C)C (stereo not drawn) | 7.8%
CCc1cccc2c(C(=O)COC(=O)c3cccc(S(=O)(=O)N(C)C4CCCCC4)c3)c[nH]c12 | 9.04%
CCOC(=O)N1CCC(NCCNC(=O)c2ccc(F)cc2)CC1.Cl | 8.29%
CCC(C(=O)Nc1cccc(OC)c1)n1nc(C)c2c(C)n(-c3ccccc3)nc2c1=O (stereo not drawn) | 4.27%
CCOC(=O)c1c(-c2ccc(C)o2)csc1NC(=O)CN1CCOCC1 | 9.27%
Oc1ccc(Br)cc1-c1n[nH]c(=S)n1Cc1ccccc1 | 12.4%
Cc1cc(Cl)nc(SCC(=O)c2ccccc2)n1 | 8.88%
COc1ccc(CNC(=O)c2ccc(Cl)c(S(=O)(=O)N3CCOCC3)c2)cc1OC | 10.3%
COc1ccc(CNCc2ccc(C(F)(F)F)cc2)cc1OC.O=C(O)C(=O)O | 16.8%
CC(=O)c1cc(C#N)c(Oc2ccc(Cl)cc2Cl)nc1C | 9.38%
CCn1nc(NC(=O)c2ccccn2)c2cc3cc(C)ccc3nc21 | 8.82%
CCOC(=O)c1c(C)c2c(n1C)CCC/C2=N\O | 11.8%
CCc1c(C)nc(N2CCN(Cc3ccccc3)CC2)[nH]c1=O | 16.4%
CC1(C)Oc2ccc3ccc(=O)oc3c2/C(=C/NCCO)C1=O | 7.93%
CCOC(=O)N1CCN(C(=O)CCSc2ccccc2)CC1 | -11.2%
Cc1ccc(C(=O)O/N=C(\N)c2ccc(Br)cc2)cc1C | 18%
CCOc1ccc(CCNC(=O)COC(=O)c2cccc(S(=O)(=O)N3CCOCC3)c2)cc1OCC | 6.25%
COc1ccccc1NC(=O)C(C)OC(=O)c1cc2ccccc2[nH]1 (stereo not drawn) | 2.39%
COCC1CCN(C(=O)c2cc(COc3ccccc3SC)on2)C1 (stereo not drawn) | -7.27%
CCOc1ccc(CCNC(=O)C2CCN(S(=O)(=O)c3ccc(C)cc3)CC2)cc1OCC | 3.52%

Compound | hERG current change (%, negative = inhibition) at 1uM
CC(C)C(C)NC(=O)CSc1nnc(-c2c[nH]c3ccccc23)o1 (stereo not drawn) | 4.32%
CC(=O)c1c(C)[nH]c(C(=O)COC(=O)c2cc(C)oc2C)c1C | 2.54%
CCOc1ccc(NC(=NCc2ccc3c(c2)OCO3)SC2CC(=O)N(c3ccccc3)C2=O)cc1 (stereo not drawn) | 8.55%
O=C(C1CCCN1S(=O)(=O)c1cccc2nsnc12)N1CCN(c2ccccc2)CC1 (stereo not drawn) | -1.72%
C[C@@H]1NC(=O)[C@@]2(C)[C@@H](c3ccccc3)[C@H]3COc4ccccc4[C@@H]3N2C1=O | 9.53%
O=C(NNC(=O)c1cccnc1SCc1cccc([N+](=O)[O-])c1)c1ccccn1 | 17.3%
CC(C)Oc1ccc(C(=O)NCC(=O)O)cc1 | 5.71%
Cc1cc(CNC(=O)C2CCC(=O)N(CCc3cccc(F)c3)C2)on1 (stereo not drawn) | 15.4%
CNS(=O)(=O)c1cc(OCC(N)=O)c(C)cc1Cl | 14.3%
O=C(NCC(=O)N1CCCC(C(F)(F)F)C1)c1ccco1 (stereo not drawn) | 11.9%
COc1ccc(C)cc1NC(=O)CN(C)S(=O)(=O)c1cc(C)ccc1OC | -2.6%
COc1ccc(OC)c(/C=N\Nc2nccs2)c1 | 8.6%
CCN(C(=O)CSc1nnc2ccccn12)C1CCS(=O)(=O)C1 (stereo not drawn) | 16.9%
CCCCNC(=O)CCn1nc(-c2ccc(Cl)cc2)c2ccccc2c1=O | -1.12%
Cc1cccc(N2CCN(c3cc(C)nc4nnnn34)CC2C)c1 (stereo not drawn) | 1.26%
CCc1ccc(CN2CCCC(CNC(=O)c3cc(OC)cc(OC)c3)C2)cc1 (stereo not drawn) | -31.6%
COc1ccc(C(=O)NC(C)c2ccc(-n3ccnc3)cc2)cc1[N+](=O)[O-] (stereo not drawn) | -40.1%
COc1ccc(-c2cc3nc(C)cc(NCCO)n3n2)cc1 | -5.46%
Cl.Nc1csnc1C(=O)O | -6.84%
CCOC(=O)Cn1c(=NC(=O)C(C)(C)C)sc2cc([N+](=O)[O-])ccc21 | 10.4%
Cc1cccc(C)c1Nc1ncnc(N)c1[N+](=O)[O-] | 15.5%
CC(=O)Nc1ccc(SCC(=O)Nc2sccc2C#N)cc1 | 17.1%

Compound | hERG current change (%, negative = inhibition) at 1uM
Cc1cc(=O)n2nc(N3CCCC(C(=O)NCCc4ccc(Cl)cc4)C3)sc2n1 (stereo not drawn) | 1.6%
CC1=NOC(=O)/C1=C\c1ccc(-c2ccc(Br)cc2C(=O)O)o1 | 18.2%
CCCCn1c(N)c(N(CCC(C)C)C(=O)C2CC(=O)N(c3cccc(SC)c3)C2)c(=O)[nH]c1=O (stereo not drawn) | 5.59%
CCCCn1cnc2c1c(=O)n(C)c(=O)n2C | 8.06%
COC(=O)c1ccccc1N(Cc1ccccc1)S(C)(=O)=O | 12.4%
COc1ccc(-n2c(CSc3nc(C)cc(C)n3)nnc2SCC(=O)Nc2nccs2)cc1 | 6.62%
COc1cccc(CNC(=O)CN2C(=O)CC(c3ccccc3)=Nc3ccccc32)c1 | -5.42%
CCC(CC)N1CCN(C(=O)c2cccc(Cl)c2)CC1.O=C(O)C(=O)O | 8.52%
O=C(NCc1ccc(N2CCCC2=O)cc1)Nc1cccc(Cl)c1 | 3.8%
CCOc1ccc(OCC(=O)NCc2n[nH]c(=O)c3ccccc23)cc1 | 9.85%
C=CCNC(=O)C1CC(=O)N(c2ccc(OCC(=O)Nc3c(C)cccc3C)cc2)C1 (stereo not drawn) | 11.8%
COCCN1Cc2cccc(C(=O)Nc3ccc(S(=O)(=O)N4CCCCC4)cc3)c2C1=O | 8.61%
Cl.Oc1ccc(Cl)cc1CNCc1cccc2ccccc12 | -2.78%
CN(C)CCOC(=O)C1(c2ccccc2)CCCC1.Cl | 8.03%
Cc1c(NC(=O)CSCc2ccc(Cl)cc2Cl)cccc1C(=O)O | 8.81%
Cc1ccc(NC(=O)CSc2nc(N)c3c4c(sc3n2)CSC(C)(C)C4)cc1 | 17.5%
CC(=O)c1ccc(NC(=O)NC2CCCc3ccccc32)cc1 (stereo not drawn) | -9.72%
O=C(O)c1cccnc1SCc1ccc([N+](=O)[O-])cc1 | 11.9%
Cc1ccccc1-n1cc(CNC(=O)CC2C(=O)NCCN2C/C=C/c2ccccc2)cn1 (stereo not drawn) | 8.08%
CC(=O)c1ccc(OCC(=O)Nc2cccc(S(=O)(=O)N3CCCC3)c2)cc1 | 14.5%
CCOC(=O)N1CCN(C(=O)c2ccc(N(Cc3ccccc3Cl)S(C)(=O)=O)cc2)CC1 | 10.8%
